Laboratory results from PubChem BioAssay AID720709 (National Center for Advancing Translational Sciences (NCATS), 2013).
The campaign covered roughly 360,000 compounds. About 520 (0.14%) were called active. The shares of active, inactive and inconclusive entries below differ from those in the screen. Calls come from the whole dose curve; as a rule, active = well fitted inhibition curve with a large enough effect; inconclusive = small, poorly fitted or top-dose-only effect; inactive = no such curve, though single readings can be large or run the other way. Potencies of inconclusive entries are left out as doubtful fits.

biological target: Rap guanine nucleotide exchange factor 3 (Homo sapiens) (UniProt O95398); test: qHTS for Antagonist of cAMP-regulated guanine nucleotide exchange factor 3 (EPAC1): primary screen; conditions: EPAC1 GEF assay, Rap1b-BODIPY-GDP exchange fluorescence; activity change, negative = inhibition: at 115 µM (top of the series); note: nearly all actives have a fitted effect of over 50% in size
Sequence of UniProt O95398 (O95398 whole entry, looked up): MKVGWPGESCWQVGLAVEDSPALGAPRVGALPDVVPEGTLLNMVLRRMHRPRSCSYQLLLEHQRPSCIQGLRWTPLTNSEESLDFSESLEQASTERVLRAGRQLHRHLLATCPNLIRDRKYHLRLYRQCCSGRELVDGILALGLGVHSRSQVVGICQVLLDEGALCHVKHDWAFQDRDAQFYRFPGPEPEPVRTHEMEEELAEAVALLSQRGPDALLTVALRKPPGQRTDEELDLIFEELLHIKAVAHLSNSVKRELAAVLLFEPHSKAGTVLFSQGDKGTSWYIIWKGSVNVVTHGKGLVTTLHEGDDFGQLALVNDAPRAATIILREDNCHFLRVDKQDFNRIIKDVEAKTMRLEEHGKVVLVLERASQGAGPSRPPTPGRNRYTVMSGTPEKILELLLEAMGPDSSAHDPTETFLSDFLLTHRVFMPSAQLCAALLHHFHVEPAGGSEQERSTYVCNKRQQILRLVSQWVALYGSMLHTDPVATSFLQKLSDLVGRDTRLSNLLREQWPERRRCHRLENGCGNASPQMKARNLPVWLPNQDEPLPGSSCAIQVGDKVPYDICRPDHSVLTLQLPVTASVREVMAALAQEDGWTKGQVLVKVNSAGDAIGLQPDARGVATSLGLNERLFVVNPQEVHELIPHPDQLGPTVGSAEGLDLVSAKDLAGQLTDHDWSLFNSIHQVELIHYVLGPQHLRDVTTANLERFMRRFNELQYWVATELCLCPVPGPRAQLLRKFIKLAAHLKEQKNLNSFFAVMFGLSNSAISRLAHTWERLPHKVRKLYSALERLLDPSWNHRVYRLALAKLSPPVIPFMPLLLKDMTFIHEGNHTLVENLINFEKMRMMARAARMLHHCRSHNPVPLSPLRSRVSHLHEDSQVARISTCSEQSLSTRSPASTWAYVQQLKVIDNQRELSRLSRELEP
Source text: In multi-cellular eukaryotic organisms, the effects of cAMP are transduced by two ubiquitously-expressed intracellular cAMP receptors, the classic protein kinase A/cAMP-dependent protein kinase (PKA/cAPK) and the more recently discovered exchange protein directly activated by cAMP/cAMP-regulated guanine nucleotide exchange factor (EPAC/cAMP-GEF). Both PKA and EPAC are ubiquitously expressed in all tissues, and an increase in intracellular cAMP levels will lead to the activation of both PKA and EPAC. Therefore, careful dissections of the individual role and relative contribution of EPAC and PKA within the overall cAMP signaling in various model systems are critical for further elucidating the mechanism of cAMP signaling. To date no EPAC-specific antagonists and agonist, as well as isoform-specific agonists have been reported, and developing EPAC-specific pharmacological probes to determine the physiological functions that EPAC play in the overall cAMP-mediated signaling remains a major challenge within the research field. Furthermore, identified regulators of EPAC may lead to new mechanism-based therapeutic strategies specifically targeting the EPAC / cAMP-signaling components as EPAC has been implicated to play important roles in major human pathological conditions such as diabetes, heart disease, and cancer. This qHTS will be used to screen the Molecular Libraries Small Molecule Repository (MLSMR) as a concentration-titration series using the NCGC unique quantitative screening (qHTS) platform to find inhibitors for EPAC1. In addition, this assay will also be used as a counterscreen for the EPAC2 qHTS. This fluorescent based assay is developed and validated for EPAC1 that measures exchange using EPAC effector Rap1 complex with BODIPY-GDP, a GDP analog with a tethered fluorophores. Inhibitors are identified by monitoring the change in fluorescence signal as the exchanged free BODIPY-GDP has a reduced fluorescence compared to Rap1-bound BODIPY-GDP. Decrease in signal (inhibition) is the desired outcome for the EPAC1 antagonist while no activity in this assay is desired for the EPAC2 antagonist counterscreen. de Rooij, J., Zwartkruis, F. J., Verheijen, M. H., Cool, R. H., Nijman, S. M., Wittinghofer, A., and Bos, J.L. (1998) Nature 396, 474-477 [2] Kawasaki, H., Springett, G. M., Mochizuki, N., Toki, S., Nakaya, M., Matsuda, M., Housman, D. E., and Graybiel, A. M. (1998) Science 282, 2275-2279 NIH Chemical Genomics Center [NCGC] NIH Molecular Libraries Probe Centers Network [MLPCN] MLPCN Grant: NS066510 Assay Submitter (PI): Xiaodong Cheng, The University of Texas, Medical Branch
Briefly, three uL of reagents (100 nM EPAC1, 250 nM RAP1B-BODIPY-GDP, 50 uM GDP) were dispensed into a 1536-well Greiner black solid-bottom medium binding assay plate. Controls and test compounds (23 nL) were transferred to the plate via a Kalypsys pin tool equipped with a 1536-pin array. The plates were centrifuged at 1,000 rpm for 15 seconds followed by 5 minute incubation at room temperature. The assay plates were read at 5 minute intervals for 30 minutes in the ViewLux plate reader using 480nm excitation and 540nm emission filters. The results were normalized to the […] positive control ATA and DMSO.
Potency is the fitted concentration of half-maximal effect; tags give direction and shape of the fitted curve.

Row | Compound | Potency | activity change, negative = inhibition
1 | CC(=O)C1=CCC(c2cccc(Cl)c2)N(S(=O)(=O)c2ccc(C)cc2)C1 (stereo not given) | inconclusive [inhibitor, partial curve, poor fit] | 
2 | COC(=O)c1ccc2c(c1)C(C)(C)C(/C=C/c1ccccc1O)=[N+]2C |  | inactive: 17.9%
3 | CSc1cccc(NC(=O)CCNS(=O)(=O)c2ccc3[nH]c(=O)oc3c2)c1 | inconclusive [inhibitor, partial curve] | 
4 | Cc1ccc(S(=O)(=O)N2CCN(C(=O)CCN3C(=O)c4ccccc4C3=O)CC2)cc1C |  | inactive: -9.51%
5 | Nc1ccc(N=Nc2ccccc2O)c(N)c1 | inconclusive [inhibitor, single point] | 
6 | COc1ccc(-c2cc(C(=O)Nc3cc(C)on3)no2)cc1 | inconclusive [inhibitor, single point] | 
7 | CC(=O)Nc1cccc(-c2ccnc3c2CC(C(=O)NCCC(F)(F)F)O3)c1 (stereo not given) |  | inactive: -19.6%
8 | CC(/C=C1\SC(=S)N(NS(=O)(=O)c2ccccc2)C1=O)=C\c1ccccc1 | active: 39.8 µM | 
9 | O=C(CN1CCN(S(=O)(=O)c2cc(Cl)ccc2Cl)CC1)c1ccc(O)c(O)c1 | inconclusive [inhibitor, single point] | 
10 | Cc1ccc(S(=O)(=O)NN2C(=O)/C(=C/c3cccnc3)SC2=S)cc1 | inconclusive [inhibitor, partial curve] | 
11 | CS(=O)(=O)Nc1cccc(C2=NN(S(=O)(=O)c3ccccc3)C(c3ccco3)C2)c1 (stereo not given) |  | inactive: -10.9%
12 | CCCc1cc(C(=O)N2CCN(c3ccc(C(F)(F)F)cn3)CC2)sc1C | inconclusive [inhibitor, partial curve] | 
13 | C#CCOCCOCCOCCNc1nc(N2CCN(C(=O)CCCCCCCCCCNC(=O)Cn3cc(CCCCCN)nn3)CC2)nc(N2CCN(C(=O)CCCCCCCCCCNC(=O)Cn3cc(C[C@@H](C)O)nn3)CC2)n1 | active: 35.5 µM | 
14 | COc1ccc(-c2n[nH]c(=S)n2-c2ccc(C)cc2)cc1 |  | inactive: 2.4%
15 | COc1cccc(NC(=O)CN(C)C(=O)c2cc3c(s2)CCC3)c1 | inconclusive [inhibitor, single point] | 
16 | O=C(Nc1ccccc1N1CCOCC1)c1ccc(Cl)c(S(=O)(=O)NCc2ccco2)c1 |  | inactive: -13.9%
17 | COC(=O)c1ccccc1NC(=O)CCS(=O)(=O)c1ccc(Br)s1 | inconclusive [inhibitor, partial curve] | 
18 | CN(C(=O)c1cccc(NC(=O)Cc2ccc([N+](=O)[O-])cc2)c1)C1CCCCC1 | inconclusive [inhibitor, single point] | 
19 | CCc1ccc(N=C2NC(=O)/C(=C/c3ccc(OCC(=O)O)cc3)S2)cc1 | inconclusive [inhibitor, partial curve] | 
20 | COc1ccc(C2CC(=O)OC3=C2C(=O)CC(C)(C)C3)c(OC)c1 (stereo not given) | inconclusive [inhibitor, single point] | 
21 | C/C=C/C(=O)Nc1cccc(C2=NOC3(C2)C[C@@H](C(N)=O)N(C(=O)c2cc([N+](=O)[O-])cc([N+](=O)[O-])c2C)C3)c1 (stereo not given in full) |  | inactive: -5.27%
22 | FC(F)(F)c1cccc(-c2nc3ccccc3n2C(c2ccccc2)c2nc3ccccc3[nH]2)c1 (stereo not given) |  | inactive: -10.9%

Row | Compound | Potency | activity change, negative = inhibition
23 | CN(C)c1ccc(/C=C(/C(=O)c2ccc(Cl)cc2Cl)n2cncn2)cc1 |  | inactive: -13.3%
24 | O=C(O)CCC(=O)N1CCc2cc(S(=O)(=O)N3CC=C(c4ccccc4)CC3)ccc21 | inconclusive [inhibitor, single point] | 
25 | Cc1[nH]n(-c2nc(-c3ccccc3)cc(=O)[nH]2)c(=O)c1CCO | inconclusive [inhibitor, partial curve, poor fit] | 
26 | CC(C)C[C@@H](CNCC(=O)[C@H](Cc1c[nH]c2ccccc12)NC(=O)c1[nH]cnc1C(=O)N[C@@H](C)CN)NC(=O)c1nc[nH]c1C(=O)N[C@@H](Cc1ccccc1)C(=O)O | inconclusive [inhibitor, single point] | 
27 | Cc1ccc(S(=O)(=O)N2CCN(C(=O)c3ccc(N4CCCCC4)c([N+](=O)[O-])c3)CC2)cc1 | inconclusive [inhibitor, single point] | 
28 | Fc1ccc(CNC2CCN(Cc3ccccc3)CC2)cc1 | inconclusive [inhibitor, partial curve] | 
29 | COc1ccc(CN2CCN(c3nc4ccccc4s3)CC2)cc1 |  | inactive: -29.6%
30 | NS(=O)(=O)c1ccc(NC(=O)CCC(=O)N2CCOCC2)cc1 | inconclusive [inhibitor, partial curve] | 
31 | CCOc1ccc(NS(=O)(=O)c2csc(C(N)=O)c2)cc1 | inconclusive [inhibitor, partial curve, poor fit] | 
32 | COC(=O)c1ccc(/C=C(\C#N)C(=O)NC(C)c2ccccc2)cc1 (stereo not given) |  | inactive: 0.358%
33 | COc1ccc(C(=O)Nc2ccccc2C(=O)NC(Cc2ccc(O)cc2)C(=O)NNC(=O)c2ccccc2Cl)cc1 (stereo not given) | inconclusive [inhibitor, partial curve] | 
34 | CN(C)CCCOc1ccc2c(c1)Sc1ccccc1CC2=O |  | inactive: -2.68%
35 | COC(=O)CCCC1=CC2=C(c3ccccc3)C(=O)C(C)(OC(=O)C3CCCC3)C(=O)C2=CN1C1CCCC1 (stereo not given) | inconclusive [inhibitor, partial curve] | 
36 | CC(C)C[C@@H](CO)NC(=O)CC[C@H](NC(=O)OC(C)(C)C)C(=O)N(Cc1ccccc1)Cc1ccccc1 | inconclusive [inhibitor, single point] | 
37 | Cc1ccc(O)c(NC(=O)c2cccc(S(=O)(=O)N3CCCCC3)c2)c1 |  | inconclusive: -11.4% [inhibitor]
38 | Cn1c(=O)c2c(ncn2CC(=O)OCC(=O)NCc2ccc(Cl)cc2)n(C)c1=O | inconclusive [inhibitor, full curve, poor fit] | 
39 | NS(=O)(=O)c1ccc(-c2cccc(/C=C3\SC(=O)NC3=O)c2)cc1 | inconclusive [inhibitor, partial curve] | 
40 | Cc1cccc(C)c1-n1cccc1/C=C1\SC(=S)N(c2cccc(C(=O)O)c2)C1=O | active: 50.1 µM | 
41 | Cn1c(CNc2nc3ccccc3n2C)nc2ccccc21 |  | inactive: 2.05%
42 | COCCNc1nc(=S)[nH]c2cc(OC)c(OC)cc12 | inconclusive [inhibitor, single point] | 
43 | Oc1ccc(Br)cc1-c1n[nH]c(=S)n1Cc1ccccc1 | inconclusive [inhibitor, full curve, poor fit] | 
44 | O=C(O)c1ccc2c(=O)n3c(nc2c1)/C(=C/c1ccc(Cl)cc1Cl)CC3 | inconclusive [inhibitor, full curve, poor fit] | 

Row | Compound | Potency | activity change, negative = inhibition
45 | O=S(=O)(c1ccc(Cl)s1)N1CCc2ccccc2C1 | inconclusive [inhibitor, partial curve, poor fit] | 
46 | CCOC(=O)C1=CCN(S(=O)(=O)c2ccccc2Br)C1c1cccc(Cl)c1 (stereo not given) |  | inactive: -18.9%
47 | CNS(=O)(=O)c1cccc(C(=O)OCC(=O)Nc2ccccc2F)c1 | inconclusive [inhibitor, partial curve] | 
48 | CCn1c(=O)c(C(=O)NNS(=O)(=O)c2ccc(C)cc2)c(O)c2ccccc21 | inconclusive [inhibitor, single point] | 
49 | CC1=Nc2ccccc2/C1=C/c1c(N)n2c(S(=O)(=O)CC(C)C)nsc2nc1=O | inconclusive [inhibitor, partial curve] | 
50 | Fc1cccc(NC(=S)NC2CCCCCCC2)c1 | inconclusive [inhibitor, full curve] | 
51 | Cc1ccc(Nc2nc(N)nc(CN3CCN(Cc4ccc5c(c4)OCO5)CC3)n2)c(C)c1 |  | inactive: -1.64%
52 | O=C(N/N=C/C1CC2C=CC1C2)c1ccccc1O (stereo not given) | inconclusive [inhibitor, single point] | 
53 | OC(COCC(F)(F)C(F)(F)C(F)(F)C(F)F)Cn1c2ccccc2c2ccccc21 (stereo not given) | inconclusive [inhibitor, partial curve] | 
54 | COc1cc(/C=N/NC(=O)c2csc3c2CCCC3)ccc1OCCN1CCOCC1 |  | inactive: 13.8%
55 | CC1=CN2C(=N)/C(=C/c3ccc([N+](=O)[O-])o3)C(=O)N=C2S1 | inconclusive [inhibitor, single point] | 
56 | O=[N+]([O-])c1cnc2ccccc2c1 | inconclusive [inhibitor, full curve, poor fit] | 
57 | CCN(CC)c1ccc(NC(=O)COc2ccccc2C#N)cc1S(=O)(=O)Nc1ccc(OC)cc1 | inconclusive [inhibitor, full curve, poor fit] | 
58 | CCc1ccc(-c2csc3ncn(CC(=O)NCc4ccco4)c(=O)c23)cc1 | inconclusive [inhibitor, single point] | 
59 | Cc1cccc(NS(=O)(=O)c2csc(C(N)=O)c2)c1C |  | inactive: 6.78%
60 | Cc1csc(NC(=O)CSc2ccc(-c3ccccc3)nn2)n1 | inconclusive [inhibitor, single point] | 
61 | O=C(Oc1ccc(C(=S)N2CCCCC2)cc1)c1ccccc1 | inconclusive [inhibitor, full curve] | 
62 | CN(C)/C=C1\Oc2ccc3ccccc3c2C1=O |  | inactive: -17.3%
63 | Cc1ccc(CCNC(=O)CN2C(=O)COc3ccc(S(=O)(=O)N4CCOCC4)cc32)cc1 | inconclusive [inhibitor, single point] | 
64 | COc1ccc(-c2[nH]ncc2CN2CCC(O)(c3ccc(Cl)cc3)CC2)cc1 |  | inactive: -8.79%
65 | COc1cccc(-c2cnc(C(O)c3cc(Cl)cc(Cl)c3)[nH]2)c1 (stereo not given) |  | inactive: -21%
